This is one part of the list.
Legend:
HSkMC = human skeletal muscle cells; test: cytotoxicity call (relative viability < 0.9); conditions: 10 µM
HepG2 = test: cytotoxicity call (relative viability < 0.9); conditions: 10 µM
S. aureus RN4220 = test: growth inhibition call (relative growth <= 0.2); conditions: 50 µM

Cc1noc(C)c1NC(=O)Nc1ccc2c(c1)C(=O)N([C@@H](C)CO)C[C@@H](C)[C@H](CN(C)C(=O)Nc1ccc(C(F)(F)F)cc1)OCCCC[C@@H](C)O2
inactive: cytotoxicity call (HSkMC) | cytotoxicity call (HepG2) | growth inhibition call (S. aureus RN4220)

C[C@@H]1CN([C@H](C)CO)C(=O)c2cc(NC(=O)Nc3cccc4ccccc34)ccc2O[C@@H](C)CCCCO[C@H]1CN(C)S(=O)(=O)c1ccccc1
inactive: cytotoxicity call (HSkMC) | cytotoxicity call (HepG2) | growth inhibition call (S. aureus RN4220)

COc1cc(C(=O)N2CCC3(CC2)CC(=O)c2cc(-c4cncc(C(=O)O)c4)ccc2O3)cc2c1c(C)cn2C1CC1
inactive: cytotoxicity call (HSkMC) | cytotoxicity call (HepG2) | growth inhibition call (S. aureus RN4220)

COc1ccc(S(=O)(=O)N2C[C@H](O)COC[C@@H]3O[C@@H](CC(=O)NCc4ccc(Cl)c(Cl)c4)CC[C@H]32)cc1
inactive: cytotoxicity call (HSkMC) | cytotoxicity call (HepG2) | growth inhibition call (S. aureus RN4220)

CCOC(=O)c1cnc[nH]1
inactive: cytotoxicity call (HSkMC) | cytotoxicity call (HepG2) | growth inhibition call (S. aureus RN4220)

Cc1ccc(C(=CCN2CCCC2)c2ccccn2)cc1.Cl
inactive: cytotoxicity call (HSkMC) | cytotoxicity call (HepG2) | growth inhibition call (S. aureus RN4220)

CN(C)c1nc(Oc2ccc(=O)n(C)n2)nc(N(C)C)n1
inactive: cytotoxicity call (HSkMC) | cytotoxicity call (HepG2) | growth inhibition call (S. aureus RN4220)

Cc1ccc(S(=O)(=O)N2C[C@H](O)COC[C@@H]3O[C@@H](CC(=O)NCCCN(C)C)CC[C@H]32)cc1
inactive: cytotoxicity call (HSkMC) | cytotoxicity call (HepG2) | growth inhibition call (S. aureus RN4220)

CO[C@@H](CN(C)S(=O)(=O)c1ccc(Cl)cc1)[C@@H](C)CN([C@@H](C)CO)S(=O)(=O)c1cccc(Cl)c1
inactive: cytotoxicity call (HSkMC) | cytotoxicity call (HepG2) | growth inhibition call (S. aureus RN4220)

C[C@H]1CN([C@@H](C)CO)C(=O)c2cccc(NC(=O)c3ccncc3)c2O[C@H]1CN(C)S(=O)(=O)c1ccc(F)cc1
inactive: cytotoxicity call (HSkMC) | cytotoxicity call (HepG2) | growth inhibition call (S. aureus RN4220)
